PubChem BioAssay AID1240 (Sanford-Burnham Center for Chemical Genomics, 2008)
Among all 50,000 compounds or so, about 800 (1.6%) showed an effect of 50% or more. This is one part of the list.

biological target: Bcl-2-like protein 10 (Homo sapiens) (UniProt Q9HD36); experiment: TR3 peptide-Bcl-B binding displacers, biochemical primary FP assay, phenotype converters (AID 1240); details: GST-Bcl-B / FITC-TR3 peptide fluorescence polarization; stronger effect = higher value; compound at 3.75 mg/L;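 also: 0% = Bcl-B with tracer peptide and DMSO and 100% = tracer peptide lacking Bcl-B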
UniProt Q9HD36, sequence (Q9HD36 whole entry, looked up): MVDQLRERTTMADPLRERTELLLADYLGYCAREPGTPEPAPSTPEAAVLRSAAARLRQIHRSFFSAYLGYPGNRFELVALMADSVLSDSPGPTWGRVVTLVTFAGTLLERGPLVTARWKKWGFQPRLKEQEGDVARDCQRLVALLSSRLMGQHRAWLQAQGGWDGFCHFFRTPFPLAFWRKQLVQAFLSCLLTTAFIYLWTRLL

Compound	displacement [%]
CC(=O)N1CCN(c2ccc(NC(=O)c3ccco3)cc2)CC1	7.8
COc1ccc(/C=C/C(=O)n2nc(C)cc2C)cc1	10.9
Ic1ccc(OCCCn2ccnc2)cc1	-0.7
O=C(NCC12CC3CC(CC(C3)C1)C2)N1CCOCC1	-5.5
Cc1occc1C(=O)Nc1nccs1	6.2
O=C1C=C(c2cccc([N+](=O)[O-])c2)C(=O)N1c1ccc(Cl)c(Cl)c1	22.1
CCN(CC)C(=O)c1sc(NC(=O)/C=C/c2cccs2)c(C(=O)OC(C)C)c1C	-11
Cc1ccc(-c2csc(NC(=O)Nc3cccc(Cl)c3)n2)cc1	-8.4
O=C(Nc1ccc(N2CCOCC2)cc1)c1ccc(Br)o1	17.4
CC(C)(C)OC(=O)COc1cc2oc(=O)c3c(c2cc1Cl)CCC3	10.1
CCOC(=O)C1=C(O)/C(=C\c2ccc(OC)cc2)N=C1/C=C/N(C)C	5
CSc1nc(C)cc(-n2cc(F)c(=O)[nH]c2=O)n1	2.7
CC(C)=CC1C(C(=O)Nc2ccc(C)cn2)C1(C)C (stereo not given)	-11.9
O=C1CC(O)(C(F)F)Oc2ccccc21 (stereo not given)	-1.2
Cc1cc(C)n(C(=O)c2cc(-c3ccccc3)nc3ccccc23)n1	4.4
O=C(O)c1cc(S(=O)(=O)NCc2ccccc2)ccc1Br	27.5
CC(C)(C)C1CCc2nc3ccccc3c(C(=O)O)c2C1 (stereo not given)	-1.3
O=C1/C(=C/c2ccccc2[N+](=O)[O-])SC(=S)N1c1cccc(C(F)(F)F)c1	12.6
Cc1ccc2c(c1)c1c3n2CCN(C(=O)c2ccccc2Cl)C3CCC1 (stereo not given)	25
Cc1ccc(C(=O)NCCCn2ccnc2)cc1[N+](=O)[O-]	-4.7
Cc1nc2ccccn2c1C(=O)N/N=C/c1c(O)ccc2ccccc12	-14.3
CC1(C)Cc2ccccc2/C(=C(\Cc2ccccc2)C(N)=O)N1	-6

Compound	displacement [%]
CCOC(=O)c1sc(NC(=O)COc2ccc(CC)cc2)c(C(=O)OCC)c1C	3.3
COc1ccccc1N(CC(=O)Nc1ccccc1Cl)S(=O)(=O)c1ccccc1	6.8
CCc1ccccc1NC(=O)CN(c1ccc(F)cc1)S(=O)(=O)c1ccccc1	1
O=C(Nc1ccc(Nc2ccccc2)cc1)c1cccc([N+](=O)[O-])c1	1.8
CCCCN1C(=O)/C(=C\c2ccc(Cl)cc2Cl)SC1=S	1.9
CCNC(=O)c1cc2c(C)nn(-c3ccccc3)c2s1	8.2
CCOC(=O)C1CCC(=O)C=C1N1CCOCC1 (stereo not given)	4.9
Clc1cc2c(cc1CSc1nnnn1-c1ccccc1)OCO2	-1.9
CCOC(=O)c1c(C)nc(C(Cl)(Cl)Cl)nc1N	-10.3
COc1ccc(NC(=O)C2CC(=O)N(c3ccc(C)cc3)C2)cc1 (stereo not given)	10
COC(=O)c1cc2nc(-c3ccc(Br)cc3)cc(C(F)(F)F)n2n1	5.7
O=C(O)CCCCCN1C(=O)C(=O)/C(=C(/O)c2ccccc2)C1c1ccc([N+](=O)[O-])cc1 (stereo not given)	-3.9
Cn1c(COc2ccc3ccccc3c2)nc2ccccc21	-17.2
O=[N+]([O-])c1ccc(Oc2ccccc2Br)cc1	6.9
CCOc1cc(/C=N\N2CCN(c3ccc(Cl)cc3)CC2)ccc1O	0.1
O=C1CSC(c2ccc(Cl)c(Cl)c2)N1CCN1CCCCC1 (stereo not given)	3
S=C(c1ccc(-c2ccccc2Cl)o1)N1CCOCC1	-0.7
Cc1ccc2oc(-c3ccc(NC(=O)c4cc5ccccc5o4)cc3)nc2c1	20.8
COc1ccc(Br)cc1/C=C/C(=O)c1ccc(C)cc1	-3.8
COc1ccc(-n2nc3ccc(NC(=O)/C=C\c4ccccc4)cc3n2)cc1	-1.2
CC(=O)c1cccc(NC(=S)NCc2ccccc2)c1	-10.3
Cc1cc(OCC(=O)Nc2cccnc2)ccc1Cl	-5.8

Compound	displacement [%]
O=C(Oc1ccc(C(=S)N2CCOCC2)cc1)c1ccccc1Cl	1.1
CC1=NN(c2ccccc2)C(=O)/C1=C\c1c(O)n(-c2ccc(C)cc2)[nH]c1=O	1.9
CN1CCN(/N=C/c2ccc(Cl)cc2Cl)CC1	1.4
COC(=O)c1ccc(CN(c2cccc3cccnc23)S(=O)(=O)c2ccc(C)cc2)cc1	7.9
O=C(NC(=S)Nc1ccc(NC(=O)c2ccco2)c(Cl)c1)c1ccc(Cl)cc1	35.9
Cc1nc2ccccc2n1Cc1ccccc1Br	8
O=C(Cc1ccc([N+](=O)[O-])cc1)Nc1c(Cl)cccc1Cl	-11.6
CC(C)Oc1ccc(/C=C(/NC(=O)c2ccccc2)C(=O)Nc2ccccc2)cc1	3.5
O=C(CSc1nnc(-c2cccc(Cl)c2)n1-c1ccccc1)c1cccc([N+](=O)[O-])c1	-13.2
Cc1ncc([N+](=O)[O-])n1CCOC(=O)Nc1ccc(Cl)c(Cl)c1	0.8
CCOC(=O)C1=C(O)/C(=C/c2ccc(N(CC)CC)cc2)SC1=Nc1cccc(Cl)c1	-37.6
COc1ccc(/C=C2\SC(N3CCCC3)=NC2=O)c(OC)c1	-18.5
CCOC(=O)c1c(-n2c(C)cc(/C=C3\NC(=S)NC3=O)c2C)sc2c1CCCC2	-36.7
O=C(NNC(=O)C1CCCCC1)c1ccccc1Cl	-12.1
O=C(/C=C/c1ccc(-c2ccccc2[N+](=O)[O-])o1)c1cc2ccccc2o1	44.1
O=S(=O)(O)c1ccc2c(c1)C(S(=O)(=O)O)CC(=N\O)/C2=N/O (stereo not given)	1.4
CCOC(=O)Cn1c(C)nc2c(C(=O)OCC)sc(C)c2c1=O	4.2
C=Cc1ccc(COc2ccc3c4c(c(=O)oc3c2)CCC4)cc1	7.4
CCCC(=O)Nc1nc2ccc(Cl)cc2s1	6.5
CCOc1cc(OCC)cc(C(=O)Nc2ccc(Cl)c(NC(=O)c3ccco3)c2)c1	13
Cc1nc2ccc(NC(=S)N3CCCC3)cc2nc1C	-3
CCOC(=O)c1ccc(N2NC(=O)/C(=C/c3ccc4c(c3)OCO4)C2=O)cc1	-3

Compound	displacement [%]
COc1cc(OC)cc(C(=O)N2CCN(Cc3ccccc3C(F)(F)F)CC2)c1	-12.7
CS(=O)(=O)N(CC(=O)Nc1ccccc1Cl)c1ccc(Cl)cc1	11.7
CCP(=O)(CC)CCP(=O)(c1ccccc1)c1ccccc1	-2.2
O=C(c1cccc(Cl)c1)N1CCCc2ccccc21	5.7
O=c1sc2ccccc2c(N2CCOCC2)c1[N+](=O)[O-]	-19.3
COc1cccc(-n2c(O)c(C=Nc3ccc4c(c3)OCO4)c(=O)[nH]c2=O)c1	9.2
CCCn1c(/N=C/c2ccc3c(c2)OCO3)nc2ccccc21	5.7
CC(=O)c1cccc(NC(=O)/C(=C\c2ccc(Br)cc2)NC(=O)c2ccc(C)cc2)c1	2.4
Cc1ccc(C(=O)Nc2ccc(NC(=O)c3ccccc3)cc2)cc1S(=O)(=O)N1CCOCC1	-9
CCN(CC)CCN1C(=O)C(O)=C(C(=O)/C=C/c2ccccc2)C1c1ccc(F)cc1 (stereo not given)	-2.7
Cc1cccc(C(=O)Nc2sc3c(c2C(=O)N2CCN(C)CC2)CCC3)c1	0.9
CCN(CC)c1ccc(C(=O)NCc2ccco2)cc1	-2.8
O=C(CCCOc1ccccc1)Nc1ccc(F)cc1	13.1
Cc1c(-n2c(O)c(C3=c4ccccc4=NC3=O)sc2=O)c(=O)n(-c2ccccc2)n1C	-7
CC(=O)N1c2ccccc2NC2=C(C(=O)CC(c3ccccc3)C2)C1c1cccs1 (stereo not given)	-21.7
CCC(Oc1ccc(Br)cc1)C(=O)NN (stereo not given)	-6
COc1ccc([N+](=O)[O-])cc1NS(=O)(=O)c1cc(Cl)ccc1Cl	6.5
COc1cc(OC)cc(C(=O)Nc2cc(-c3nc4cc(Cl)ccc4o3)ccc2C)c1	110
COCCOC(=O)c1c(C)oc2ccc(OCc3ccc([N+](=O)[O-])cc3)cc12	11.7
O=C(/C=C/c1cccc([N+](=O)[O-])c1)Nc1cccc(-c2nc3ccccc3s2)c1	17.4
O=C(CCCOc1ccc(Cl)cc1Cl)Nc1ccc(F)c(Cl)c1	3.1
O=c1/c(=C/c2ccccc2OCCOc2ccc([N+](=O)[O-])cc2)sc2nc3ccccc3n12	13.9

Compound	displacement [%]
COC(=O)c1ccccc1N(Cc1ccc(Cl)cc1)S(=O)(=O)c1ccc(C)cc1	6.3
COc1ccccc1-c1c(C(F)(F)F)oc2cc(OC(=O)C(C)(C)C)ccc2c1=O	14.4
Cc1ccc(N2C(=O)CC(N3CCN(c4ccc([N+](=O)[O-])cc4)CC3)C2=O)c(C)c1 (stereo not given)	1
COc1ccccc1NC(=O)CN(c1ccc(C)cc1)S(=O)(=O)c1ccc(F)cc1	9
Brc1ccccc1OCCCN1CCCC1	11.5
CSc1ccc(/C=C2/SC(=O)N(CN3CCCCC3)C2=O)cc1	-1.4
CC1CC(N(c2ccccc2)S(=O)(=O)c2ccc(Cl)cc2)c2ccccc2N1 (stereo not given)	0.7
c1ccc2oc(SCCCCCSc3nc4ccccc4o3)nc2c1	3.6
O=C1/C(=C\c2ccc(-c3cccc(C(F)(F)F)c3)o2)SC(=S)N1C1CCCCC1	23.8
COc1ccccc1CC(=O)Nc1cccc([N+](=O)[O-])c1	-8.5
COc1ccc(OCC(=O)Nc2cccc([N+](=O)[O-])c2)cc1	-7.9
Cc1cc(C)nc(NS(=O)(=O)c2ccc(NC(=S)NC(=O)c3ccc(F)c(F)c3)cc2)n1	-5
CC(C)(C)NC(=O)c1cc2ccccc2o1	8.5
O=C(/C=C/c1ccc(-c2ccccc2[N+](=O)[O-])o1)Nc1cccnc1	73.1
CCCCOc1ccc(-c2cc(C(=O)O)c3ccccc3n2)cc1	9.8
CCC1(C)Cc2ccccc2/C(=C/C(=O)NC)N1 (stereo not given)	18.6
COc1nccc(Nc2ccccc2)c1C#N	-0.1
OCCNC(Nc1ccc(Cl)cc1)=C(c1ccccc1)c1ccccc1	-9
O=C(/C=C\c1ccco1)Oc1ccc(/C=N\NC(=O)c2cncc(Br)c2)cc1	5.9
COc1ccc(-c2cc(C(=O)Nc3ccccc3Cl)c3ccccc3n2)cc1	12.2
c1ccc(CN2CCC(N3CCNCC3)CC2)cc1	-0.8
O=S(=O)(c1ccc(Br)cc1)N1CCN(c2ccccc2Cl)CC1	5.4
